Part of at least one peptide drawing is inferred or uncertain, most often the ends. Ends that are not written are not given here.
Experiments:
E.coli ATCC 25922 = test: Radial diffusion assay (RDA), E. coli; format: cell-based, Escherichia coli; conditions: zone of bacterial clearance in RDA; unit mm only in FIG. 1 legend, not in Table 2A
Protocol: (§1) Escherichia coli ATCC25922, Pseudomonas aeruginosa ATCC27853, Staphylococcus aureus ATCC29213, Bacillus subtilis ATCC6633 bacterial isolates, and the fungal isolate Candida albicans ATCC90028, were obtained from the Department of Bacteriology, Lund University Hospital.
(§2) Radial diffusion assays (RDA) were performed essentially as described earlier (Lehrer, R. I., Rosenman, M., Harwig, S. S., Jackson, R. & Eisenhauer, P. (1991) Ultrasensitive assays for endogenous antimicrobial polypeptides, J Immunol Methods. 137, 167-73.).
(§3) Briefly, bacteria (E. coli, P. aeruginosa, S. aureus, B. subtilis) or fungi (C. albicans) were grown to mid-logarithmic phase in 10 ml of full-strength (3% w/v) trypticase soy broth (TSB) (Becton-Dickinson, Cockeysville, Md.). The microorganisms were washed once with 10 mM Tris, pH 7.4. 4×10^6 bacterial cfu or 1×10^5 fungal cfu was added to 5 ml of the underlay agarose gel, consisting of 0.03% (w/v) TSB, 1% (w/v) low-electroendoosmosistype (Low-EEO) agarose (Sigma, St Louise Mo.) and a final concentration of 0.02% (v/v) Tween 20 (Sigma). The underlay was poured into a Ø85 mm petri dish. After agarose solidified, 4 mm-diameter wells were punched and 6 μl of test sample was added to each well. Plates were incubated at 37° C. for 3 hours to allow diffusion of the peptides. The underlay gel was then covered with 5 ml of molten overlay (6% TSB and 1% Low-EEO agarose in dH2O). Antimicrobial activity of a peptide is visualized as a clear zone around each well after 18-24 hours of incubation at 37° C. for bacteria and 28° C. for Candida albicans.

S.aureus ATCC 29213 = test: Radial diffusion assay (RDA), S. aureus; format: cell-based, Staphylococcus aureus; conditions: zone of bacterial clearance in RDA; unit mm only in FIG. 1 legend, not in Table 2A
Protocol: as §1, §2, §3

Sequence | Bacteria E.coli ATCC 25922 Mean (E.coli ATCC 25922) [mm] | Bacteria S.aureus ATCC 29213 Mean (S.aureus ATCC 29213) [mm]
LFRLKKWIRKVTKQFGR [SEQ ID NO:14, LFRLKKWIRKVTKQFGR] | 8.22 | 4.81
VFRLKKWIQKVIDQFGK [SEQ ID NO:41, VFRLKKWIQKVIDQFGK] | 10.26 | 5.98
THVFRLKKWIQKVIDQFGE [SEQ ID NO:3, THVFRLKKWIQKVIDQFGE] | 8.30 | 5.70
VKRLKKWIQKVIKLFGK [SEQ ID NO:43, VKRLKKWIQKVIKLFGK] | 10.34 | 6.37
VFRLKKWIRKVTKQFGE [SEQ ID NO:26, VFRLKKWIRKVTKQFGE] | 7.78 | 5.42
LFRLKKWIRKVIKQFGE [SEQ TD NO:19, LFRLKKWIRKVIKQFGE] | 9.54 | 7.66

From patent US8076286B2, “Antimicrobial peptides and use thereof” (priority 2006, dated 2011)
